According to PubChem BioAssay AID1508624 (National Center for Advancing Translational Sciences (NCATS), 2021):
Several values for one entry are separate records, joined by “and”; a condition that tells them apart may be missing. Equal values may be shown once. In all, about 48,000 compounds went through this assay and about 120 (0.25%) were called active. Inconclusive results (about 4%) are left out. Calls follow the shape of the dose curve; as a rule, active = well fitted activation curve with a large enough effect; inconclusive = small, poorly fitted or top-dose-only effect, or another doubt; inactive = no such curve, though single readings can be large or run the other way. Some of the results follow.

Assay: Primary qHTS for Identification of Small Molecule Activators of Huntingtin-Antisense Promoter Activity; also: nearly all actives have a fitted effect of over 55% in size
Conditions: HEK293 HTT-AS promoter firefly luciferase reporter, 24 h; at 57.5 µM (top of the series) unless noted
Summary of the method: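 HEK293 Fluc reporter, 2,500 cells/well, 24 h pre-culture; cpds up to 57.5 uM final, 24 h 37 degrees C; Dual-Glo, 10 min RT; normalized vehicle = 0%, zero RLU = -100%.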

Structure (SMILES)	activity change, positive = activation
CC(C)(C)c1cc(C=C(C#N)C#N)cc(Br)c1O	inactive: -87.4%
O=C(Nc1ccc2c(c1)OCO2)c1cccn(Cc2ccc(F)cc2)c1=O	inactive: -4.54%
O=c1cccc2n1CC1CNC[C@H]2C1	inactive: 10.4%
O=C1OC(c2ccc(O)c(S(=O)(=O)O)c2)(c2ccc(O)c(S(=O)(=O)O)c2)c2c(Br)c(Br)c(Br)c(Br)c21	inactive: 0.0002%
NCC(CC(=O)O)c1ccc(Cl)cc1 (stereo unspecified)	inactive: -12.9% [at 0.74 µM]
CN(C)[C@@H]1C(=O)C(C(N)=O)=C(O)[C@@]2(O)C(=O)C3=C(O)c4c(O)cccc4[C@@](C)(O)[C@H]3C[C@@H]12	inactive: -5.24% and inactive: -17.3%
Cc1ccccc1Cn1cccc(C(=O)Nc2cc(Cl)ccc2C#N)c1=O	inactive: -14.3%
Cn1c(=O)n(C)c2cc(CNCCc3ccccc3)ccc21	inactive: -3.26%
CC(NC(C)(C)C)C(=O)c1cccc(Cl)c1 (stereo unspecified)	inactive: -0.19% and inactive: 4.76%
CCC(=O)N1CC(=O)Nc2ccc(C)cc2C1c1ccc(F)cc1 (stereo unspecified)	inactive: -7.07% [at 57.5 µM, percent change from vehicle, -100% = no light]
CCOc1ccc2nc(NC(=O)c3cccn(Cc4ccccc4C)c3=O)sc2c1	inactive: -6.68%
Cc1cc(NC(=O)c2cccn(Cc3cccc([N+](=O)[O-])c3)c2=O)no1	inactive: -19.7% [at 57.5 µM, percent change from vehicle, -100% = no light]
NCc1cccnc1	inactive: 1.3%
COc1ccc(-c2nc(CN3C(=O)CN=C(c4ccccc4)c4ccccc43)c(C)o2)cc1OC	inactive: -15.2% [at 57.5 µM, percent change from vehicle, -100% = no light]
CCc1ccc(OCC(=O)N2CCN(CCc3ccccn3)CC2)cc1	inactive: 3.13% [at 11.5 µM]
COc1ccccc1-n1c(/C=C/c2ccccc2)nc2ccccc2c1=O	inactive: 14.4% [at 57.5 µM, percent change from vehicle, -100% = no light]
Cn1c(CCCC(=O)O)nc2cc(N(CCCl)CCCl)ccc21	inactive: -11.8% and inactive: -8.73%
O=C1CN=C(c2ccccc2)c2cc(Cl)ccc2N1Cc1ccc(Cl)cc1	inactive: -46.7%
O=C(N[C@@H](COc1ccc2[nH]c(=O)[nH]c2c1)c1ccccc1)c1cccn(Cc2ccc(F)c(F)c2)c1=O	inactive: -34.5%
NC(=O)c1cc([N+](=O)[O-])cc([N+](=O)[O-])c1	inactive: -0.376%
C[C@@]12OC(=O)[C@]1([C@@H](O)[C@@H]1C=CCCC1)NC(=O)[C@H]2CCCl	inactive: -60%
O=C1CC[C@@]2(O)[C@H]3Cc4ccc(O)c5c4[C@@]2(CCN3CC2CC2)[C@H]1O5	inactive: 0.466% and inactive: 13.9%
COc1ccc(-c2nn3c(=O)cc(CN4CCN(C(=O)COc5ccc(F)cc5)CC4)nc3s2)cc1	inactive: -11.3% [at 57.5 µM, percent change from vehicle, -100% = no light]

Structure (SMILES)	activity change, positive = activation
CCN(CC)CCc1c[nH]c2ccccc12	inactive: -14.7% [at 222 µM]
CC(=O)OC1(c2ccccc2)CCN(CCc2ccccc2)CC1	inactive: -19.7% [at 116 µM]
Oc1ccc2[nH]cc(CCCCN3CC=C(c4ccccc4)CC3)c2c1	inactive: -24.6%
Cc1oc(-c2ccc(Cl)cc2)nc1CN1C(=O)CN=C(c2ccccc2)c2cc(Cl)ccc21	inactive: -14.7% [at 57.5 µM, percent change from vehicle, -100% = no light]
COC1CC(=C(c2cccs2)c2cccs2)C[N+](C)(C)C1 (stereo unspecified)	inactive: -8.72%
CN1CCN(C(=O)O[C@H]2c3nccnc3C(=O)N2c2ccc(Cl)cn2)CC1	inactive: -1.03% and inactive: -5.7%
Cc1ccc(NC(=O)CN2C(=O)CN=C(c3ccccc3)c3ccccc32)c(C)c1	inactive: -26.1% [at 57.5 µM, percent change from vehicle, -100% = no light]
CCOP(=S)(OCC)O/N=C(\C#N)c1ccccc1	inactive: -6.47%
C=CC(=O)NCNC(=O)C=C	inactive: 2.52% [at 116 µM]
O=C(c1ccc2c(c1)N(Cc1ccc(F)cc1Cl)C(=O)c1ccccc1S2)N1CCC2(CC1)OCCO2	inactive: -29.6%
CC(Cc1ccccc1)NCCn1cnc2c1c(=O)n(C)c(=O)n2C (stereo unspecified)	inactive: -14.2% [at 116 µM]
COc1nn(CSP(=S)(OC)OC)c(=O)s1	inactive: -26.4% [at 116 µM]
CCCCc1nc2ccccc2c(=O)n1-c1cccc(OC)c1	inactive: -26.1%
CC(C)NCC(O)c1ccc([N+](=O)[O-])cc1 (stereo unspecified)	inactive: -9.49%
N[C@@H]1C[C@H]1c1ccccc1	inactive: 0.704%
Nc1c(C(=O)Nc2ccc(OC(F)(F)F)cc2)sc2nc3c(cc12)N1CCC3CC1	inactive: -59.9%
COc1cc(/C=C/c2nc3ccccc3c(=O)n2-c2ccc(Br)c(C)c2)ccc1O	inactive: -22%
CCC1(c2ccccc2)C(=O)N(COC)C(=O)N(COC)C1=O	inactive: -5.68%
N#Cc1cc([N+](=O)[O-])ccc1NC(=O)c1cccn(Cc2cccc(F)c2)c1=O	inactive: -13.7% [at 57.5 µM, percent change from vehicle, -100% = no light]
C#C[C@]1(O)CC[C@H]2[C@@H]3CCC4=CC(=O)CCC4=C3C=C[C@@]21CC	inactive: -39.7%
O=C(CCl)c1ccc(Cl)cc1Cl	inactive: -8.36%
O=C(Nc1ccc2c(c1)OCCO2)c1cccn(Cc2cccc([N+](=O)[O-])c2)c1=O	inactive: -12.3%
CSc1ccc(C(c2c(O)c3ccccc3oc2=O)c2c(C)n(C)n(-c3ccccc3)c2=O)cc1 (stereo unspecified)	inactive: -25.4% [at 57.5 µM, percent change from vehicle, -100% = no light]
